Test results as given in PubChem BioAssay AID1476 (National Center for Advancing Translational Sciences (NCATS), 2009).
Several values for one entry are separate records, joined by “and”; a condition that tells them apart may be missing. Identical values can stand only once. Screen size: about 200,000 compounds; about 4,500 (2.2%) were called active. The inconclusive results got no clear call from the source; some entries with a clear call stand among them for comparison. Calls follow the shape of the dose curve; as a rule, active = well fitted inhibition curve with a large enough effect; inconclusive = small, poorly fitted or top-dose-only effect, or effect the other way; inactive = flat fitted curve, though single readings scatter. Where the call is inconclusive, the potency comes from a doubtful curve fit.

Biological target: Cruzipain (Trypanosoma cruzi) (UniProt P25779)
Sequence of UniProt P25779 (P25779 whole entry, looked up): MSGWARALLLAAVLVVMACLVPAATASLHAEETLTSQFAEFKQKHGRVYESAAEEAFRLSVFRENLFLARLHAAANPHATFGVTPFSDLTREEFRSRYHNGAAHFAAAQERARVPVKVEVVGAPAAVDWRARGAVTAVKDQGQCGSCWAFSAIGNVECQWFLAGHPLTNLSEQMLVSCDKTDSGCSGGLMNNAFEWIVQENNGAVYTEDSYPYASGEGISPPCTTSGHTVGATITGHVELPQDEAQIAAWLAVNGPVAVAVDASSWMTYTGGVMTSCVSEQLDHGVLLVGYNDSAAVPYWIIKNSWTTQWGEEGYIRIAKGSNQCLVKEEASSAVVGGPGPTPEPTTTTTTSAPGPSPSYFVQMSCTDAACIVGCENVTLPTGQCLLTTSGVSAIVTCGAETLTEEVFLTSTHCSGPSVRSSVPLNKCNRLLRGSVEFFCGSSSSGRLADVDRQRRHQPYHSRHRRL
Experiment: qHTS Assay for Promiscuous and Specific Inhibitors of Cruzain (without detergent); also: nearly all actives have a fitted effect of over 40% in size;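 as to max response, negative = inhibition: plate controls were enzyme without inhibitor for no effect and buffer without enzyme for full effect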
Conditions: purified cruzain, Z-FR-AMC fluorescence, no detergent
Method in brief: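 Detergent-free condition (0.00005% Triton X-100) in acetate buffer pH 5.5 with DTT. 1.5 nM enzyme and compound were pre-mixed 15 min, then 2 uM Z-FR-AMC substrate added; reaction progress from fluorescence change between first and third reads (60 s).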
Potency is read from the fitted curve at half-maximal effect; tags tell the direction and shape of the fitted curve.

**Q.** Which Potency does the source give for `Cc1cccc(OCC(=O)Nc2ccc(Cl)c(-c3nc4ccccc4[nH]3)c2)c1` here?
**A.** inconclusive: 39.8 µM [inhibitor, single point]

**Q.** How did the Potency turn out when `C=CCCCCCCCCCCCC(O)CC(O)COC(C)=O` (stereo unspecified) was run?
**A.** inconclusive: 10 µM [activator, partial curve, poor fit]

**Q.** Which max response, negative = inhibition does the source give for `CN1CCc2nc3sc(C(=O)Nc4cccc(C#N)c4)c(N)c3cc2C1` here?
**A.** inactive: -27.6%

**Q.** How did the max response, negative = inhibition turn out when `COc1ccccc1NC(=O)Cn1c(=O)n(-c2cccc(Cl)c2)c(=O)c2c1c1cc(C)ccc1n2C` was run?
**A.** inactive: 2.43%

**Q.** Which Potency does the source give for `COc1ccc(S(=O)(=O)N(Cc2cc3ccc(OC)cc3[nH]c2=O)CC2COCCO2)cc1` (stereo unspecified) here?
**A.** inconclusive: 25.1 µM [activator, partial curve]

**Q.** How did the Potency turn out when `Oc1ccc(/C=C/c2ccnc3ccccc23)cc1` was run?
**A.** inconclusive: 31.6 µM [inhibitor, single point]

**Q.** With `Cc1ccccc1Nc1nnc(SCc2cc([N+](=O)[O-])cc3c2OCOC3)s1` as the compound, how does the Potency read?
**A.** active: 12.6 µM

**Q.** With `O=C(CCn1nc(-c2ccc(Cl)cc2)ccc1=O)NCc1ccccn1` as the compound, how does the max response, negative = inhibition read?
**A.** inactive: 2.25%

**Q.** With `CCCOc1ccc(C2c3c(-c4ccccc4O)n[nH]c3C(=O)N2CCCOCC)cc1OCC` (stereo unspecified) as the compound, how does the Potency read?
**A.** inconclusive: 31.6 µM [activator, single point]

**Q.** How did the Potency turn out when `CC1CCCN(S(=O)(=O)c2ccc(N(C(=O)c3cnccn3)C(C(=O)NC3CCCCC3)c3cccs3)cc2)C1` (stereo unspecified) was run?
**A.** inconclusive: 39.8 µM [activator, single point]

**Q.** `O=C(Oc1ccc2c(-c3ccccc3)cc(=O)oc2c1)c1cccs1` was tested. Which Potency did it give?
**A.** active: 6.31 µM

**Q.** With `Cc1ccccc1Nc1cc(C(=O)NCCc2ccc(Cl)cc2)c2ccccc2n1` as the compound, how does the Potency read?
**A.** inconclusive: 31.6 µM [inhibitor, single point]

**Q.** `CCOC(=O)N1CCC(NC(=O)C(Cc2ccccc2)NC(=O)C2CCCCC2)CC1` (stereo unspecified) was tested. Which Potency did it give?
**A.** inconclusive: 25.1 µM [activator, single point]

**Q.** For `Cc1ccc(-n2c(=O)c3c(cnn3C)n(CC(=O)Nc3c(C)cccc3C)c2=O)cc1`, which max response, negative = inhibition is on record?
**A.** inactive: 21.8%

**Q.** Which Potency does the source give for `Cc1c(/C=N/N2C(=O)C3C4C=CC(C4)C3C2=O)c2ccccc2n1C` (stereo unspecified) here?
**A.** inconclusive: 39.8 µM [inhibitor, single point]

**Q.** `CC(=O)Nc1ccc(S(=O)(=O)Nc2nc(-c3ccc(C(C)(C)C)cc3)cs2)cc1` was tested. Which Potency did it give?
**A.** inconclusive: 39.8 µM [activator, single point]

**Q.** Which Potency does the source give for `C=Cc1ccc(CSc2nnc(C)n3c2cc2occc23)cc1` here?
**A.** inconclusive: 39.8 µM [activator, single point]

**Q.** How did the max response, negative = inhibition turn out when `Cn1c(=O)c2c(n3ncnc13)NC(=O)CC2c1cccc(F)c1` (stereo unspecified) was run?
**A.** inactive: 14.2%

**Q.** How did the Potency turn out when `Cc1ccc(C(=O)Nc2nc(-c3nnn(-c4cccc(Cl)c4C)c3C)ns2)cc1C` was run?
**A.** inconclusive: 39.8 µM [inhibitor, single point]

**Q.** Which Potency does the source give for `COc1cccc(-c2nc(CS(=O)(=O)CC(=O)NCCc3ccc(OC)c(OC)c3)c(C)o2)c1` here?
**A.** inconclusive: 39.8 µM [activator, single point]

**Q.** `COC(=O)C1(C(=O)OC)CC(CO)C(=O)[C@H]1c1ccccc1` (stereo partly specified) was tested. Which max response, negative = inhibition did it give?
**A.** inactive: -3.58% and inactive: -8.79%

**Q.** With `Nc1ccc2c(c1)C(=O)Cc1ccccc1S2` as the compound, how does the Potency read?
**A.** inconclusive: 31.6 µM [inhibitor, single point]

**Q.** Which max response, negative = inhibition does the source give for `CCOc1ccc(-c2cn3c(n2)sc2cc(C(=O)NCCCN(CC)CC)ccc23)cc1` here?
**A.** inactive: -18.3%

**Q.** With `COc1cccc(CNC(=O)c2oc3ccc4c(c3c2C)C(=O)CC(C)(C)O4)c1OC` as the compound, how does the Potency read?
**A.** inconclusive: 31.6 µM [activator, single point]

**Q.** For `COc1ccc(CCNC(=O)CCCCn2c(=O)c3ccccc3n(Cc3ccc(Cl)cc3)c2=O)cc1OC`, which Potency is on record?
**A.** inconclusive: 39.8 µM [activator, single point]

**Q.** Which Potency does the source give for `Cc1c(C(=O)Nc2ccc(F)c(F)c2)oc2ccc(S(=O)(=O)N(C)C3CCCCC3)cc12` here?
**A.** inconclusive: 39.8 µM [inhibitor, single point]

**Q.** With `O=C(Nc1cc2ccc(O)cc2oc1=O)c1ccc(F)cc1` as the compound, how does the max response, negative = inhibition read?
**A.** inactive: -0.341%

**Q.** Which max response, negative = inhibition does the source give for `CCOC(=O)c1[nH]c(C)c(CCC(=O)NC(C)c2ccccc2)c1C` (stereo unspecified) here?
**A.** inactive: -8.17%

**Q.** With `Cc1cc(C)cc(NC(=O)CCS(=O)(=O)c2ccc3nc(C)sc3c2)c1` as the compound, how does the max response, negative = inhibition read?
**A.** inactive: -2.35%

**Q.** For `CCCc1ccc(-c2csc(NC(=O)Cc3cccs3)n2)cc1`, which Potency is on record?
**A.** inconclusive: 39.8 µM [activator, single point]

**Q.** `COc1ccc(OC)c(S(=O)(=O)N2Cc3ccccc3CC2C(=O)Nc2ccc(Cl)cc2)c1` (stereo unspecified) was tested. Which Potency did it give?
**A.** inconclusive: 31.6 µM [inhibitor, single point]

**Q.** With `Cc1ccc2c(c1)C(=O)C(=O)N2Cc1ccc(OC(C)C)cc1` as the compound, how does the Potency read?
**A.** inconclusive: 31.6 µM [activator, single point]

**Q.** Which Potency does the source give for `C=C/C(=C/C(=O)C[C@H](C)C[C@@H](C)CC[C@H](O)[C@H](C)C(=O)C[C@@H](O)[C@H](C)[C@@H](C)OC(=O)C[C@@H](O)C1=C(C)C(=O)OC1=O)CC` here?
**A.** inconclusive: 8.91 µM [activator, single point]

**Q.** How did the max response, negative = inhibition turn out when `COc1ccc(NS(=O)(=O)c2cc(C)ccc2OC)cc1OC` was run?
**A.** inactive: 3.67%

**Q.** For `CCOc1ccc(CNC(=O)c2[nH]c3ccccc3c2Sc2ccc(C)cc2)cc1`, which Potency is on record?
**A.** inconclusive: 31.6 µM [activator, partial curve]

**Q.** For `O=C(Cn1ccn(-c2cccc(Cl)c2)c(=O)c1=O)c1ccc(F)cc1`, which max response, negative = inhibition is on record?
**A.** inactive: -3.25%

**Q.** Which max response, negative = inhibition does the source give for `O=C(NCCCN1CCN(c2ccc(F)cc2)CC1)c1sc2ncccc2c1-n1cccc1` here?
**A.** inactive: -1.76%

**Q.** For `CCCCCC(=O)N=Nc1c(O)[nH]c2ccc([N+](=O)[O-])cc12`, which Potency is on record?
**A.** inconclusive: 39.8 µM [inhibitor, single point]

**Q.** For `CCOc1cc(C(=O)Nc2ccc(S(=O)(=O)Nc3cc(C)on3)cc2)cc(OCC)c1OCC`, which Potency is on record?
**A.** inconclusive: 39.8 µM [activator, single point]

**Q.** How did the Potency turn out when `CC1=CSC2=NC(=O)/C(=C\c3cccn3-c3ccc([N+](=O)[O-])cc3)C(=N)N12` was run?
**A.** inconclusive: 3.98 µM [activator, single point]

**Q.** How did the Potency turn out when `O=C(CSc1nc2c([nH]c3ccccc32)c(=O)n1-c1ccccc1F)Nc1ccccc1C(F)(F)F` was run?
**A.** inconclusive: 20 µM [inhibitor, single point]
